Measurements from US20240075157A1 (MAGENTA THERAPEUTICS, published 2024).

Assays:
hFcγR2B = target: T1, hFcγR2B (human, UniProt P31994 46-217, tagged with biotin or histidine (which one is not stated for this receptor)); experiment: BLI, Bio-hFcR2B
T1 sequence (looked up): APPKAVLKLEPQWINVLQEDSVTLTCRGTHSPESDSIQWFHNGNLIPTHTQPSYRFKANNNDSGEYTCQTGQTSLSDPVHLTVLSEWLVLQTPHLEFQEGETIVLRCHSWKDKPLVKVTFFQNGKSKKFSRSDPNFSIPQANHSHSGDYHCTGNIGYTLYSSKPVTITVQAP

hFcγR3A 176V [1] = target: T2, hFcγR3A 176V (human, UniProt P08637 in part, tagged with biotin or histidine (which one is not stated for this receptor)); experiment: BLI
hFcγR2A 167H = target: T3, hFcγR2A 167H (human, UniProt P12318 36-218, tagged with biotin or histidine (which one is not stated for this receptor)); experiment: BLI
T3 sequence (looked up): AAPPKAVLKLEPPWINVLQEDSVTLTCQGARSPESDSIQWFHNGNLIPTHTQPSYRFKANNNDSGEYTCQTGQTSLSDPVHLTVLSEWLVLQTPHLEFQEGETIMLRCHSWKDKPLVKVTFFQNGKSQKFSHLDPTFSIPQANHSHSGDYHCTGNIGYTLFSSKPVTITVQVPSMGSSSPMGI

[2] = target: T4, cynomolgus FcγRI (cyno FcγR1) (cynomolgus, UniProt A0A2K5U901 33-309, Tagged with histidine ('His-cyno FcR1') for capture on the biosensor; the tag is not in the letters.); experiment: BLI, His-cyno FcR1
T4 construct: Immobilised on streptavidin or anti-histidine biosensors at 10-25 nM; not shown: the histidine (or biotin) tag used to immobilise the receptor
T4 sequence (A0A2K5U901 entry or part of it limits assumed): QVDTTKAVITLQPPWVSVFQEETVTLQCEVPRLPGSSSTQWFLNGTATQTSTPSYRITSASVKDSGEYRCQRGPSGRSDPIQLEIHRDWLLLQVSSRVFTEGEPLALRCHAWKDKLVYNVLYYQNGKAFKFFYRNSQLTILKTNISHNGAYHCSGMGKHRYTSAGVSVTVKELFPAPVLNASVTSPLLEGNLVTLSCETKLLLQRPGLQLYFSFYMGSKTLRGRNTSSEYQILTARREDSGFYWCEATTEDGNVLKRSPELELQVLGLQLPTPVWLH

hFcγR3A 176V [3] = target: T2, hFcγR3A 176V; experiment: BLI, Bio-hFcR3A 176V
T2 sequence (P08637 17-208 F176V limits assumed): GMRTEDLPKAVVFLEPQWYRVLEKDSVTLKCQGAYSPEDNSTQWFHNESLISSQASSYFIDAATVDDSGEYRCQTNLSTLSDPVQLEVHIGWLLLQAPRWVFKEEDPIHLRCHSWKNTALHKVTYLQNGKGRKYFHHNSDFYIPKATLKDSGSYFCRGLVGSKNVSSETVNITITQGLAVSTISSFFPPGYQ

hFcγR3A 176V [4] = target: T2, hFcγR3A 176V; experiment: BLI, FcR3A 176V

B1: Ab2 D265C N297Q (antibody, human IgG1, kappa, N297Q)
heavy: EVQLVQSGAEVKKPGESLKISCKGSGYSFTNYWIGWVRQMPGKGLEWMAIINPRDSDTRYRPSFQGQVTISADKSISTAYLQWSSLKASDTAMYYCARHGRGYEGYEGAFDIWGQGTLVTVSS[human IgG1 constant region with D265C N297Q (EU numbers) skipped]
light: DIQMTQSPSSLSASVGDRVTITCRSSQGIRSDLGWYQQKPGKAPKLLIYDASNLETGVPSRFSGSGSGTDFTLTISSLQPEDFATYYCQQANGFPLTFGGGTKVEIKRTVAAPSVFIFPPSDEQLKSGTASVVCLLNNFYPREAKVQWKVDNALQSGNSQESVTEQDSKDSTYSLSSTLTLSKADYEKHKVYACEVTHQGLSSPVTKSFNRGEC
notes: copies: 2 + 2
Normalized Response (hFcγR2B): 9 % of WT | binding result (hFcγR3A 176V [1]): no binding (tested: 300 nM) | binding result (hFcγR2A 167H): no binding (tested: 300 nM)

B2: Ab2 D265C.H435A (anti-CD117 antibody Ab85 with D265C and H435A) (antibody, human IgG1, kappa, name in EU numbering)
heavy: EVQLVQSGAEVKKPGESLKISCKGSGYSFTNYWIGWVRQMPGKGLEWMAIINPRDSDTRYRPSFQGQVTISADKSISTAYLQWSSLKASDTAMYYCARHGRGYEGYEGAFDIWGQGTLVTVSS[human IgG1 constant region with D265C H435A (EU numbers) skipped]
light: DIQMTQSPSSLSASVGDRVTITCRSSQGIRSDLGWYQQKPGKAPKLLIYDASNLETGVPSRFSGSGSGTDFTLTISSLQPEDFATYYCQQANGFPLTFGGGTKVEIKRTVAAPSVFIFPPSDEQLKSGTASVVCLLNNFYPREAKVQWKVDNALQSGNSQESVTEQDSKDSTYSLSSTLTLSKADYEKHKVYACEVTHQGLSSPVTKSFNRGEC
Normalized Response (hFcγR2B): 9 % of WT | Normalized Response [2]: 49 % of WT | binding result (hFcγR3A 176V [1]): no binding (tested: 300 nM) | Normalized Response (hFcγR3A 176V [3]): 1 % of WT

B3: Ab2 D265C.LALA.H435A ADC2 (antibody)
heavy chain: EVQLVQSGAEVKKPGESLKISCKGSGYSFTNYWIGWVRQMPGKGLEWMAIINPRDSDTRYRPSFQGQVTISADKSISTAYLQWSSLKASDTAMYYCARHGRGYEGYEGAFDIWGQGTLVTVSSASTKGPSVFPLAPSSKSTSGGTAALGCLVKDYFPEPVTVSWNSGALTSGVHTFPAVLQSSGLYSLSSVVTVPSSSLGTQTYICNVNHKPSNTKVDKKV[human IgG1 Fc with L234A L235A D265C H435A (EU numbers) skipped]
light chain: DIQMTQSPSSLSASVGDRVTITCRSSQGIRSDLGWYQQKPGKAPKLLIYDASNLETGVPSRFSGSGSGTDFTLTISSLQPEDFATYYCQQANGFPLTFGGGTKVEIKRTVAAPSVFIFPPSDEQLKSGTASVVCLLNNFYPREAKVQWKVDNALQSGNSQESVTEQDSKDSTYSLSSTLTLSKADYEKHKVYACEVTHQGLSSPVTKSFNRGEC
binding result (hFcγR3A 176V [4]): no binding (tested: 600 nM)
